Out of some 330,000 compounds screened, about 40 (0.01%) were called active. Inconclusive results, whose numbers are uncertain, are shown with a selection of clear calls. Calls follow the shape of the dose curve; as a rule, active = well fitted inhibition curve with a large enough effect; inconclusive = small, poorly fitted or top-dose-only effect, or effect the other way; inactive = flat fitted curve, though single readings scatter. Potencies of inconclusive entries are doubtful fits and often do not repeat.
Each compound was assayed against Ubiquitin carboxyl-terminal hydrolase 2 (Homo sapiens) (UniProt O75604) (assay: qHTS Assay for Inhibitors of Ubiquitin-specific Protease USP2a Using CHOP2 as the Reporter). Conditions: USP2 core, Ub-CHOP2 coupled fluorogenic reporter, 485/531; series mostly up to 38.3 µM.
Chain of UniProt O75604 (O75604 whole entry, looked up): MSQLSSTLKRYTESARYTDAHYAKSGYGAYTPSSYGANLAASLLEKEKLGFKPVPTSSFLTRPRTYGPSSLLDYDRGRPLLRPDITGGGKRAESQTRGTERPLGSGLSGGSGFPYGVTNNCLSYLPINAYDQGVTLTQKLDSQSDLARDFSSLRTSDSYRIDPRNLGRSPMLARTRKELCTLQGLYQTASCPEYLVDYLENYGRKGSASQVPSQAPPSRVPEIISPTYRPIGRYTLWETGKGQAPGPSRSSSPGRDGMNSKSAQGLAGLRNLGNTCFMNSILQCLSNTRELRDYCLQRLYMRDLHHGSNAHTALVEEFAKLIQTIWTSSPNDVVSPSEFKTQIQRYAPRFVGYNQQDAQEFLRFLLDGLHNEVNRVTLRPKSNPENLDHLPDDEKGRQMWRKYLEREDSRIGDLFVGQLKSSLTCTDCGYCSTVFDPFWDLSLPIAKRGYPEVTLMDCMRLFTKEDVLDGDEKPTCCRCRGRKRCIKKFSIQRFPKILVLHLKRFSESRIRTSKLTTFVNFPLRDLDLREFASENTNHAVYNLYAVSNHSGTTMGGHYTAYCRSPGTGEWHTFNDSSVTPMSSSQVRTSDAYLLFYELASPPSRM
From the text: NIH Molecular Libraries Screening Centers Network [MLSCN] NIH Chemical Genomics Center [NCGC] MLSCN Grant: XO1-MH079852-01 PI Name: Nicholson, Ben. Progenra Inc, Malvern, PA NCGC Assay Overview: Homeostasis of cellular proteins is maintained through a combination of synthesis and degradation. The pathway that accounts for the majority of protein degradation is the ubiquitin-proteasomal pathway. Ubiquitin (Ub) is highly conserved in all cells and the generation of a multi-Ub chain typically targets proteins for degradation by the proteasome. However, ubiquitination is highly reversible and dynamic. Deubiquitination, the reverse process, is catalyzed through the action of enzymes referred to as isopeptidases or deubiquitinating enzymes (DUBs). This group of enzymes is collectively responsible for maintaining adequate pools of free ubiquitin and regulating the ubiquitination status of cellular proteins. The class of DUBs referred to as the ubiquitin-specific proteases (USP) family functions endoproteolytically to cleave Ub chains from a wide range of protein substrates. USP2a deubiquitinates fatty acid synthase (FASN) which has recently been identified as an emerging oncology target. To identify inhibitors of USP2a a cell-free assay was employed. […] The reporter enzyme chosen is an enterokinase called CHOP2, which is activated when the Ub is cleaved by USP2. The free and now activated reporter can subsequently act on its reporter substrate. Thus, this coupled assay gives a fluorescent read-out at excitation/emission wavelengths of 485/531. The assay was developed by Progenra, Inc. and has been licensed for sale by LifeSensors, Inc. as Ub-CHOP2-Reporter-Kit (#PR1101).
NCGC Assay Protocol Summary: The assay buffer, prepared fresh at the day of the assay, contains 20mM Tris-HCl pH 8.0, 2mM CaCl2, 2mM beta-Mercaptoethanol, 0.05% CHAPS. 3ul of 20nM (10nM final) USP2 core, which is stored on ice, is dispensed into a medium-binding black solid Kalypsys 1,536 well plate using the Kalypsys dispenser. The assay plate is then pinned with 23nL compound with the Kalypsys pintool in columns 5-48. The controls are pinned as follows: column 1 two-fold dilutions of 2M NEM in duplicate; column 2 2M NEM (final concentration 38.2mM); column 3&4 DMSO. The assay plate is incubated at RT for 30min. Subsequently, 1.5uL of 100nM (25nM final) Ub-CHOP2 and 1.5uL of 100nM (25nM final) Reporter Substrate (both stored on ice and protected from light) were dispensed into the plate using the Kalypsys dispenser. Plates were read after 60min RT incubation on a ViewLux (Perkin Elmer) plate reader using the following wavelengths Ex 485nm /Em 531nm. Data were normalized to the to AC100 inhibition (NEM). Concentration-response curves were fitted to the normalized data and the concentration-response curves were then classified based on curve quality (r2), response magnitude and degree of measured activity. The time zero reading was used to flag fluorescence artifacts. Keywords: ubiquitination, deubiquitination, proteases, profluorescent, MLSMR, MLPCN, NIH Roadmap, qHTS, NCGC
For `N#CCC(=O)Nc1ccc(C(=O)OCC(=O)NCc2ccc3c(c2)OCO3)cc1`, the Potency was inconclusive: 22.4 µM [falling, single point].
`COc1ccc(CC(=O)c2ccccc2C(=O)O)cc1` was tested, and the Potency was inconclusive: 22.4 µM [falling, single point].
With `CC(=O)N1CCCc2cc(S(=O)(=O)CCC(=O)N3CCN(c4cccc(C)c4)C(C)C3)ccc21` (configuration not stated) the Potency was inconclusive: 28.2 µM [falling, single point].
With `O=C(/C=C\c1ccco1)c1ccc(NC(=O)c2ccco2)cc1` the Potency was inconclusive: 28.2 µM [falling, single point].
`N#Cc1c(-c2ccccc2)cc(-c2ccco2)c(C#N)c1N` was tested, and the Potency was inconclusive: 28.2 µM [falling, single point].
`CC(=O)NS(=O)(=O)c1ccc(NC(=O)c2cc(-c3ccc(C)c(C)c3)nc3ccccc23)cc1` was tested, and the Potency was inconclusive: 20 µM [falling, single point].
With `O=C(CCSCc1ccc(Cl)cc1)NCCc1ccccc1` the Potency was inconclusive: 3.98 µM [falling, single point].
With `Cc1cccc(NC(=O)COc2ccc(/C=C\c3[nH]c(=O)[nH]c(=O)c3[N+](=O)[O-])cc2)c1` the Potency was “inactive”.
With `O=C(Cc1ccc(S(=O)(=O)N2CCOCC2)s1)NCCC(c1ccccc1)c1ccccc1` the Potency was inconclusive: 20 µM [falling, single point].
In the case of `NS(=O)(=O)c1ccc(NC(=O)CN2CCCCC2)cc1`, the Potency is reported as inconclusive: 5.01 µM [falling, single point].
In the case of `O=c1ccc2c(-c3ccccc3)c3ccc(O)cc3oc-2c1`, the Potency is reported as inconclusive: 15.8 µM [fluorescent, partial curve].
For `Cn1cc(/C=C/c2cc[n+](C)cc2)c2cc(F)ccc21`, the Potency was inconclusive: 11.2 µM [fluorescent, partial curve].
For `NC(=O)[C@@H]1CC2(CC(c3cccc(NC(=O)COc4ccc(Cl)cc4)c3)=NO2)CN1C(=O)COc1ccc(Cl)cc1` (some centres not stated), the Potency was “inactive”.
For `CN1C(=S)SC(C)(C)C1N(O)C(=O)Nc1ccc(Cl)cc1` (configuration not stated), the Potency was “inactive”.
With `O=C1NC(=Nc2ccccc2)S/C1=C\C=C\c1ccco1` the Potency was active: 5.62 µM.
In the case of `Cc1ccc(C=Nc2ccccc2C(N)=O)cc1`, the Potency is reported as inconclusive: 15.8 µM [falling, single point].
`c1nc2n(n1)C1=C(CCCC1)C1(CCCCC1)N2` was tested, and the Potency was “inactive”.
`O=C(CSc1nccc(=O)[nH]1)N1N=C2/C(=C/c3ccco3)CCCC2C1c1ccco1` (configuration not stated) was tested, and the Potency was inconclusive: 28.2 µM [falling, single point].
In the case of `CC(C)CC(=O)Nc1cccc(-c2nc3ccccc3o2)c1`, the Potency is reported as inconclusive: 28.2 µM [falling, single point].
`COc1ccccc1-n1c(SCC(=O)Nc2ccc(C)cc2)nc(O)cc1=O` was tested, and the Potency was inconclusive: 20 µM [falling, single point].
With `O=C(Nc1ccc(S(=O)(=O)Nc2cnc3ccccc3n2)cc1)c1ccc(Cl)c([N+](=O)[O-])c1` the Potency was “inactive”.
For `Cc1ccc(SCC(=O)OCC(=O)N(C)CC(=O)Nc2ccc(F)cc2)cc1C`, the Potency was “inactive”.
For `Cc1ccccc1C(=O)Nc1ccc2nc3n(c(=O)c2c1)CCC3`, the Potency was inconclusive: 5.01 µM [falling, single point].
`CCC(=O)c1ccc(OCC(=O)NC2CCN(Cc3ccccc3)CC2)cc1` was tested, and the Potency was inconclusive: 20 µM [falling, single point].
For `COc1cc(/C=C(\C#N)c2nc3ccccc3[nH]2)ccc1O`, the Potency was inconclusive: 11.2 µM [fluorescent, single point].
With `CCCCCC#CCC#CCC#CCC#CCCCC(=O)O` the Potency was inconclusive: 28.2 µM [falling, single point].
For `O=c1cc2oc3cc(O)c(O)cc3c(-c3ccccc3O)c-2cc1O`, the Potency was inconclusive: 28.2 µM [fluorescent, single point].
For `CCOC(=O)CCNCc1ccc(F)cc1`, the Potency was “inactive”.
`CCCNC(=O)NCc1ccc(N2CCCC2=O)cc1` was tested, and the Potency was inconclusive: 22.4 µM [falling, single point].
`C=CCn1c(=N)c(C(=O)NCCCOC)cc2c(=O)n3ccccc3nc21` was tested, and the Potency was “inactive”.
In the case of `Fc1ccc(C2=CC(c3ccc(Br)o3)n3ncnc3N2)cc1` (configuration not stated), the Potency is reported as inconclusive: 20 µM [fluorescent, single point].
`O=S(=O)(Nc1cccc(-c2cn3c(n2)SCC3)c1)c1ccc(F)cc1F` was tested, and the Potency was inconclusive: 28.2 µM [falling, single point].
For `Nc1ccc(-c2c3ccc(=O)cc-3oc3cc(O)ccc23)c(C(=O)O)c1`, the Potency was inconclusive: 12.6 µM [fluorescent, partial curve].
In the case of `CCCNC(=O)CS(=O)Cc1nc(-c2ccccc2C)oc1C` (configuration not stated), the Potency is reported as inconclusive: 5.01 µM [falling, single point].
For `Cc1ccccc1NC(=O)CSc1nnc(-c2ccco2)c(-c2ccco2)n1`, the Potency was inconclusive: 22.4 µM [falling, single point].
In the case of `CN(CC(=O)Nc1cccc2ccccc12)C(=O)c1ccc(NC(=O)CC#N)cc1`, the Potency is reported as inconclusive: 28.2 µM [falling, single point].
For `COc1ccc2cc(CN(C(=O)Nc3ccccc3)C3CCCC3)c(=O)[nH]c2c1`, the Potency was inconclusive: 12.6 µM [falling, single point].
In the case of `COc1ccc(OC)c(-c2csc(NC(=O)Cc3ccccc3F)n2)c1`, the Potency is reported as “inactive”.
For `O=c1/c(=C/c2ccco2)sc2n1CN(c1cccc(Br)c1)CN=2`, the Potency was inconclusive: 28.2 µM [falling, single point].
For `CCN1CC=C2C(C#N)=C(N)C(C#N)(C#N)C(CCc3ccccc3)C2C1` (configuration not stated), the Potency was inconclusive: 11.2 µM [fluorescent, single point].
With `Cc1ccc(S(=O)(=O)Nc2ccc(SC(F)F)cc2)c(C)c1` the Potency was “inactive”.
For `O=C(N/N=C/c1ccc(Sc2ccccn2)o1)c1cc2ccccc2cc1O`, the Potency was inconclusive: 22.4 µM [falling, single point].
In the case of `O=C1CCCC2=C1C1O[C@](c3ccsc3)(Cc3c1ccc1ccccc31)O2`, the Potency is reported as inconclusive: 5.01 µM [falling, single point].
In the case of `O=c1nc(/C=C/c2cccn2-c2ccc([N+](=O)[O-])cc2)cc(C(F)(F)F)[nH]1`, the Potency is reported as “inactive”.
`CC(C)n1nc(C(=O)Nc2ccccc2N2CCOCC2)c2ccccc2c1=O` was tested, and the Potency was inconclusive: 3.98 µM [falling, single point].
In the case of `O=c1ccc2cc3c4c(c2o1)CCCN4CCC3`, the Potency is reported as inconclusive: 12.6 µM [fluorescent, partial curve].
With `CCN(CC)S(=O)(=O)c1ccc(-c2nnc(SCC(=O)Nc3ccc4c(c3)OCO4)o2)cc1` the Potency was inconclusive: 28.2 µM [falling, single point].
With `CCn1c(COc2ccc(C)cc2)nnc1SCC(=O)Nc1ccc2c(c1)OCCO2` the Potency was inconclusive: 11.2 µM [falling, partial curve].
With `O=C(COc1ccccc1)N1CCN=C1SCc1cccnc1` the Potency was “inactive”.
With `COc1ccc(C(=O)NNC(=S)NC(=O)c2ccc(OC)cc2)cc1` the Potency was “inactive”.
With `O=C(CCCN1C(=O)/C(=C\c2ccco2)SC1=S)Nc1ccc(O)cc1C(=O)O` the Potency was inconclusive: 22.4 µM [falling, single point].
For `CCCc1cc(=O)[nH]c(-n2[nH]c3c(c2=O)CCCC3)n1`, the Potency was inconclusive: 10 µM [fluorescent, partial curve].
For `CCCCCCCCCCOC(=O)Cn1c(COc2ccc(OC)cc2)[n+](C)c2ccccc21`, the Potency was inconclusive: 28.2 µM [falling, single point].
In the case of `CCOC(=O)N1CCN(C(=O)CN(c2ccc(Oc3ccccc3)cc2)S(C)(=O)=O)CC1`, the Potency is reported as inconclusive: 20 µM [falling, single point].
With `CCCC1NC(C(=O)O)Cc2c1[nH]c1ccccc21` (configuration not stated) the Potency was “inactive”.
In the case of `CCc1c(O)nc(SCC(=O)Nc2ccccc2OC)[nH]c1=O`, the Potency is reported as inconclusive: 28.2 µM [falling, single point].
For `CCC/C(O)=C1\C(=O)CC(C)(C)CC1=Nc1ccc(OC)cc1OC`, the Potency was inconclusive: 5.01 µM [falling, single point].
In the case of `O=C(Nc1ccc(S(=O)(=O)Nc2nccs2)cc1)c1ccc(N2C(=O)c3ccccc3C2=O)cc1`, the Potency is reported as inconclusive: 25.1 µM [falling, single point].
`OC(CN1CCOCC1)CN1CCOCC1` was tested, and the Potency was inconclusive: 5.01 µM [fluorescent, single point].
`CCc1c(C)sc(NC(=O)c2cc(C(C)C)on2)c1C#N` was tested, and the Potency was “inactive”.
`COc1cccc2c1C(=O)c1c(O)c3c(c(O)c1C2=O)C[C@@](O)(C(=O)CO)C[C@@H]3O[C@H]1C[C@H](N)[C@H](O)[C@H](C)O1` was tested, and the Potency was inconclusive: 10 µM [fluorescent, partial curve].
With `COc1ccccc1/C=C/C=C1\Oc2c(ccc(O)c2CN2CCN(CCO)CC2)C1=O` the Potency was inconclusive: 11.2 µM [fluorescent, partial curve].
With `O=[N+]([O-])c1ccc2nc(C(O)C(O)c3nc4ccc([N+](=O)[O-])cc4[nH]3)[nH]c2c1` (configuration not stated) the Potency was inconclusive: 28.2 µM [falling, single point].
`Nc1nc(NCCO)nc(NCC2CCCO2)c1[N+](=O)[O-]` (configuration not stated) was tested, and the Potency was inconclusive: 28.2 µM [falling, single point].
`COC(=O)C1=C(C)N(Cc2ccccc2)C(=NCCc2c[nH]c3ccccc23)N[C@H]1c1ccccc1` was tested, and the Potency was inconclusive: 28.2 µM [falling, single point].
With `COc1cc(NC(=O)C2CC(c3c(F)cccc3Cl)=NO2)cc(OC)c1OC` (configuration not stated) the Potency was “inactive”.
In the case of `CCCc1nc(SCC(N)=O)[nH]c(=O)c1CC`, the Potency is reported as inconclusive: 28.2 µM [falling, single point].
Potency is read from the fitted curve at half-maximal effect; tags tell the direction and shape of the fitted curve or compound fluorescence and quenching.
